# Source: the BET-seq Pho4 binding data (Le et al. 2018)
# This is one part of the list. These are noisy estimates, calculated here from bound and input reads.
# Target: T1, Pho4 (S. cerevisiae) (UniProt P07270)
# T1 sequence: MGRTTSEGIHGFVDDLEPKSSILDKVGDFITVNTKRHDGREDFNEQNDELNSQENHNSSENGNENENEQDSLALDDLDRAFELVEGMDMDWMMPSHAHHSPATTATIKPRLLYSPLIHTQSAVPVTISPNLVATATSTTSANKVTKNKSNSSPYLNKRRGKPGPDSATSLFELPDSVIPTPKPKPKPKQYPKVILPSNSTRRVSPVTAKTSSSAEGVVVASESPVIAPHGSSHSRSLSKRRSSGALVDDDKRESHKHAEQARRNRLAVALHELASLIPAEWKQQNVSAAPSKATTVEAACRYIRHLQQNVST
# Assay: relative binding free energy (BET-seq); higher = weaker binding
# Details: reference: library average
row,Sequence,relative binding free energy [kcal/mol]
1,GGGCTCACGTGTGGCG,0.29
2,ATTGACACGTGTCGGT,-0.03
3,AGTTACACGTGTGAGC,0.16
4,ATAGTCACGTGCGGTT,0.13
5,ATTCCCACGTGTTTGG,0.06
6,GGTAACACGTGTTCGT,-0.01
7,TGATTCACGTGTGACT,0.3
8,TGGCACACGTGTGGCA,0.15
9,AGTGGCACGTGAAGCG,0.16
10,AACGGCACGTGTCTGG,0.19
11,TGTATCACGTGTACAT,0.09
12,TGATACACGTGGGAGG,0.02
13,ATTTTCACGTGCGCGA,0.33
14,ACGTGCACGTGAGGGT,0.13
15,TATTACACGTGGGTTA,-0.16
16,TGACTCACGTGAGTTT,0.32
17,GGGTACACGTGGCGAT,0.09
18,TAGGTCACGTGTTTGG,0.06
19,GGGAACACGTGTAGAG,0.06
20,ATGGTCACGTGCGTAC,0.09
21,ATGAGCACGTGCGATG,-0.07
22,TTGAGCACGTGTTGCT,-0.05
23,CGTCGCACGTGTTGGG,0

row,Sequence,relative binding free energy [kcal/mol]
1,TTCTACACGTGTGGTA,0.11
2,TGGGCCACGTGGGGAA,-0.1
3,AAGGGCACGTGAACGT,-0.01
4,CGTTTCACGTGGGGGT,0.17
5,GTCGGCACGTGTGATG,0.12
6,GCTGGCACGTGTTAGT,0.11
7,CAGGTCACGTGAGAGT,0.22
8,TTGTGCACGTGATGGA,0.06
9,TTGTACACGTGCGATA,0.16
10,GTATGCACGTGAGTTA,0.18
11,CTTGACACGTGGGGAG,-0.05
12,AGCATCACGTGGGGGC,0.06
13,GTTGTCACGTGTTATC,0.25
14,TTTATCACGTGAGGGT,0.34
15,AGTTGCACGTGTTTGA,-0.1
16,TTAAACACGTGAGAGT,0.33
17,GTTAGCACGTGGGTTA,-0.28
18,AGGGGCACGTGTTTCT,-0.12
19,ATGCACACGTGGTGGA,-0.1
20,GGTTCCACGTGGTCTT,0.09
21,GGTGGCACGTGCGTTC,-0.03
22,TTATTCACGTGGTACG,0.14
23,GGGGCCACGTGGTGGT,-0.07

row,Sequence,relative binding free energy [kcal/mol]
1,CGATTCACGTGTGTTG,0.15
2,TATGGCACGTGGGGCA,-0.16
3,TCTGGCACGTGGCTGG,-0.23
4,TTTGCCACGTGGGTTC,-0.04
5,GTGTTCACGTGGTGCA,0.22
6,GGTGTCACGTGATAGA,0.3
7,AAAATCACGTGATGGG,0.31
8,TGTAGCACGTGTTCGG,-0.03
9,ACTTTCACGTGGGCGT,0.12
10,AGGTGCACGTGGGATT,-0.18
11,GCTTGCACGTGCAGGG,-0.02
12,TGGTTCACGTGCGTCG,0.05
13,TGGCCCACGTGGGGTT,-0.29
14,GGAGGCACGTGTTGTA,-0.11
15,AATAACACGTGCGGTG,-0.05
16,GTGCGCACGTGAGGCT,0.08
17,TTTGTCACGTGTAGGG,0.16
18,ATAGCCACGTGTAGGT,-0.14
19,TAGCTCACGTGAGGTT,0.36
20,AGCGGCACGTGGGATA,-0.19
21,GGTGTCACGTGTACGA,0.06
22,ATTGTCACGTGCCTTG,-0.03
23,GTACACACGTGGGGTA,0.06

row,Sequence,relative binding free energy [kcal/mol]
1,GTCGTCACGTGTGTTT,0.18
2,GTTGTCACGTGAAGTA,0.29
3,TGATTCACGTGGTATG,0.19
4,AGGTGCACGTGAGGTC,0.07
5,ATGCGCACGTGGGATT,-0.23
6,TCACGCACGTGGGTGG,-0.26
7,TATGTCACGTGTTAGA,-0.02
8,GGTGCCACGTGTGGAT,0.04
9,TGGAGCACGTGTTATA,-0.16
10,TTGTGCACGTGCGGGA,-0.06
11,GGGTTCACGTGGTCGT,0.25
12,ATGGACACGTGATGAG,0.32
13,GGTTCCACGTGGCGTG,0.07
14,CTTTTCACGTGTTTAG,0.22
15,TTTGGCACGTGTTCGC,-0.13
16,CCATGCACGTGAGGGT,0.18
17,CTCTACACGTGGGGGT,-0.06
18,TTATACACGTGTTGGA,0.02
19,TATTTCACGTGGTGCT,0.24
20,AGTCTCACGTGTTGGG,0.27
21,TGCGGCACGTGGACAG,-0.07
22,AGGTACACGTGTGGGA,0.15
23,AGGATCACGTGTATGG,0.13

row,Sequence,relative binding free energy [kcal/mol]
1,GCGGGCACGTGGTAGT,-0.09
2,GGGAGCACGTGCCTGG,-0.12
3,AGACCCACGTGGGGGG,-0.29
4,TTGGGCACGTGCGATT,-0.16
5,CGTTGCACGTGTTAAT,0
6,GGATTCACGTGAGTTA,0.41
7,TGTCGCACGTGAGACG,0.27
8,GTTGACACGTGGGCGA,-0.07
9,TGTCTCACGTGTCGGG,0.22
10,GCTGACACGTGCGTGT,0.04
11,TATTTCACGTGGCTAA,0.19
12,AGTGTCACGTGAGCGT,0.21
13,TGCGTCACGTGGTGAA,0
14,ATAACCACGTGTTGTG,-0.15
15,AATCGCACGTGTCGGG,0.04
16,GGATGCACGTGAGGGC,0.33
17,GCGGTCACGTGGTCAG,0.07
18,TGGAGCACGTGGTCGA,-0.11
19,TCAGTCACGTGTTGTG,0.07
20,TGTTGCACGTGGCTTG,-0.04
21,GATTTCACGTGGGCGG,0.21
22,ATGTGCACGTGGGGAT,-0.18
23,GTATACACGTGACTTG,0.21
